# Results as given in PubChem BioAssay (Tox21).
# Several values for one entry are separate records, joined by “and”; a condition that tells them apart may be missing. Equal entries are not always repeated. The inconclusive results got no clear call from the source; some entries with a clear call stand among them for comparison. For part of these data: Potencies beside an inconclusive call are fits to weak or partial responses and may not hold up. Activity calls are given as the source filed them. Unless noted, the call rests on the fitted dose curve; in most records, active means well fitted curve in the direction sought with a large enough effect in the repeat runs; inconclusive means weak or mixed curves; inactive means no such curve, though single readings can be large; an effect the other way counts as inactive or inconclusive.
# Key:
# [1] = molecular target: Peroxisome proliferator-activated receptor gamma (Homo sapiens) (UniProt P37231); experiment: qHTS assay to identify small molecule agonists of the peroxisome proliferator-activated receptor gamma (PPARg) signaling pathway (AID 743094; active means well fitted activation curve with a large enough effect in the signal ratio in the repeat runs, not every such curve was filed as active; inconclusive means weak or mixed curves, or effect the other way; inactive means no such curve, though single readings can be large or run the other way; the % refers to the signal ratio); conditions: HEK293H PPARg-UAS-bla, beta-lactamase FRET ratio, 17 h; activation: at 57 µM (top of the series) unless noted
# Summary of the method: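 Following 5 h plating at 37C, PPARg-bla HEK293H cells receive compound or DMSO for 17 h; fluorescence intensity is recorded after LiveBLAzer B/G loading for 1 h at room temperature.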
# [2] = molecular target: Peroxisome proliferator-activated receptor gamma (Homo sapiens) (UniProt P37231); experiment: qHTS assay to identify small molecule antagonists of the peroxisome proliferator-activated receptor gamma (PPARg) signaling pathway (AID 743191; calls by dose curve; further: nearly all actives have a fitted effect of over 30% in size; on ratio activity, negative = inhibition: on the % scale 0 is the no-effect control and ±100 the full control effect); conditions: HEK293H PPARg-UAS-bla, beta-lactamase ratio, antagonist, 17 h; ratio activity, negative = inhibition: at 62.6 µM (top of the series) unless noted
# Summary of the method: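 Beta-lactamase reporter under UAS control in HEK293H PPARg-bla cells; compound treatment 17 h at 37C. Read-out: fluorescence intensity after 1 h room-temperature incubation with LiveBLAzer B/G FRET substrate.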
# [3] = qHTS assay to identify small molecule antagonists of the peroxisome proliferator-activated receptor gamma (PPARg) signaling pathway - cell viability counter screen (AID 743194); conditions: PPARg-bla HEK293H viability, CellTiter-Glo luminescence, 17 h, co-treated with 50 nM rosiglitazone; activity change, negative = cytotoxicity: at 62.6 µM (top of the series); further: nearly all actives have a fitted effect of over 55% in size; on activity change, negative = cytotoxicity: on the % scale 0 is the no-effect control and ±100 the full control effect
# Summary of the method: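 Viability was measured as CellTiter-Glo luminescence in GeneBLAzer PPARg UAS-bla HEK293H cells. These cells had been exposed 17 h at 37 C to compounds together with rosiglitazone at 50 nM final, with the beta-lactamase readout taken in the same wells.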
# [4] = qHTS assay for small molecule agonists of the antioxidant response element (ARE) signaling pathway (AID 743202; active means well fitted activation curve with a large enough effect in the signal ratio in the repeat runs, not every such curve was filed as active; inconclusive means weak or mixed curves, or effect the other way; inactive means no such curve, though single readings can be large or run the other way; the % refers to the signal ratio; on activation: on the % scale 0 is the no-effect control and ±100 the full control effect); conditions: HepG2 ARE-bla reporter, beta-lactamase FRET, 16 h; activation: at 73.3 µM (top of the series) unless noted
# Summary of the method: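 Quantitative high-throughput format in HepG2 cells bearing an integrated ARE-beta-lactamase reporter. Compound exposure lasted 16 h at 37 C, and fluorescence was read 2 h after adding LiveBLAzer B/G substrate at room temperature.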
# [5] = molecular target: Peroxisome proliferator-activated receptor delta (Homo sapiens) (UniProt Q03181); experiment: qHTS assay to identify small molecule agonists of the peroxisome proliferator-activated receptor delta (PPARd) signaling pathway (AID 743212; calls by dose curve; on activation: on the % scale 0 is the no-effect control and ±100 the full control effect); conditions: HEK293H PPARd-UAS-bla, beta-lactamase FRET ratio, 17 h; activation: at 62.6 µM (top of the series) unless noted
# Summary of the method: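 HEK293H PPARd-bla cells; 5 h preincubation 37 C/5% CO2; compound (DMSO) 37 C; LiveBLAzer B/G FRET substrate 2 h RT; fluorescence intensity.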
# [6] = qHTS assay to identify small molecule antagonists of the peroxisome proliferator-activated receptor delta (PPARd) signaling pathway - cell viability counter screen (AID 743213); conditions: PPARd-bla HEK293H viability, CellTiter-Glo luminescence, 17 h; viability change, negative = cytotoxic: at 62 µM (top of the series) unless noted; further: nearly all actives have a fitted effect of over 50% in size
# Summary of the method: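 Cytotoxicity counter screen: CellTiter-Glo luminescence read 30 min after addition, in the same wells as the reporter assay. There, PPARd UAS-bla HEK293H cells (3000/well) were treated 17 h at 37 C with compound and 300 nM L165041.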
# [7] = molecular target: Peroxisome proliferator-activated receptor delta (Homo sapiens) (UniProt Q03181); experiment: qHTS assay to identify small molecule antagonists of the peroxisome proliferator-activated receptor delta (PPARd) signaling pathway (AID 743215; active means well fitted inhibition curve with a large enough effect in the signal ratio in the repeat runs, not every such curve was filed as active; inconclusive means weak or mixed curves, or effect the other way; inactive means no such curve, though single readings can be large or run the other way; the % refers to the signal ratio;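 further: cells stimulated with agonist L165041 at 300 nM final during compound exposure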); conditions: HEK293H PPARd-UAS-bla, beta-lactamase FRET ratio, antagonist, 17 h; ratio activity, negative = inhibition: at 62 µM (top of the series) unless noted
# Summary of the method: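 With L165041 present at 300 nM final, compounds were incubated 17 h at 37 C on PPARd UAS-bla HEK293H cells. A FRET-based beta-lactamase substrate was then applied for 2 h at room temperature and fluorescence intensity recorded.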
# [8] = qHTS assay to identify small molecule that activate the aryl hydrocarbon receptor (AhR) signaling pathway - cell viability counter screen (AID 743086); further: nearly all actives have a fitted effect of over 45% in size
# Summary of the method: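 Cytotoxicity counter screen: CellTiter-Fluor signal (30 min, 37 C) in 4000 HepG2 cells/well carrying the DRE-luciferase reporter, following 24 h compound exposure at 37 C.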
# [9] = qHTS assay to identify small molecule agonists of the farnesoid-X-receptor (FXR) signaling pathway - cell viability counter screen (AID 743218); conditions: FXR-bla HEK293T viability, CellTiter-Glo luminescence, 16 h; viability change, negative = cytotoxic: at 62.6 µM (top of the series) unless noted; further: nearly all actives have a fitted effect of over 45% in size
# Summary of the method: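 After 16 h at 37 C with test compounds, FXR-bla HEK 293T cells were given LiveBLAzer B/G substrate for 2 h at RT and then CellTiter-Glo; luminescence was taken after 30 min.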
# [10] = qHTS assay to identify small molecule antagonists of the farnesoid-X-receptor (FXR) signaling pathway - cell viability counter screen (AID 743221; active means well fitted cell-killing curve with a large enough effect in the repeat runs, not every such curve was filed as active; inconclusive means weak or mixed curves, or effect the other way; inactive means no such curve, though single readings can be large or run the other way; further: nearly all actives have a fitted effect of over 50% in size); conditions: FXR-bla HEK293T viability, CellTiter-Glo luminescence, 16 h; activity change, negative = cytotoxicity: at 62.6 µM (top of the series)
# Summary of the method: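 GeneBLAzer FXR-UAS-bla HEK 293T cells, compound plus chenodeoxycholic acid (50 uM final), 16 h at 37 C. CellTiter-Glo added to the same wells after the beta-lactamase read; luminescence read after 30 min at room temperature as viability.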
# [11] = qHTS assay for small molecule activators of the heat shock response signaling pathway - cell viability counter screen (AID 743209); conditions: HSE-bla HeLa viability, CellTiter-Glo luminescence, 5 h; activity change, negative = cytotoxicity: at 62.6 µM (top of the series); further: nearly all actives have a fitted effect of over 50% in size
# Summary of the method: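 Counter screen for cytotoxicity in HeLa HSE-bla reporter cells. Treatment was 5 h at 37 C; viability was detected by luminescent ATP assay (CellTiter-Glo) in the same wells as the beta-lactamase read.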
# [12] = qHTS assay for small molecule activators of the heat shock response signaling pathway (AID 743210; active means well fitted activation curve with a large enough effect in the signal ratio in the repeat runs, with a control signal flat, not every such curve was filed as active; inconclusive means weak or mixed curves; the % refers to the signal ratio); conditions: HeLa HSE-bla reporter, beta-lactamase ratio, 5 h; activation: at 62.6 µM (top of the series)
# Summary of the method: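 HeLa HSE-bla cells, overnight plating; cpd in DMSO 5 h, 37 C; LiveBLAzer B/G FRET substrate 2.5 h RT; fluorescence intensity read.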
# [13] = qHTS assay for small molecule agonists of the antioxidant response element (ARE) signaling pathway - cell viability counter screen (AID 743203; calls by dose curve; further: nearly all actives have a fitted effect of over 55% in size); conditions: ARE-bla HepG2 viability, CellTiter-Glo luminescence, 16 h; viability change, negative = cytotoxic: at 73.3 µM (top of the series)
# Summary of the method: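 Compounds in DMSO were pinned onto ARE-bla HepG2 cells plated 5 hrs earlier at 2,000 cells/well. Sixteen hours later at 37C/5% CO2, CellTiter-Glo was added and luminescence measured after 30 min at room temperature.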
# [14] = molecular target: Bile acid receptor (Homo sapiens) (UniProt Q96RI1); experiment: qHTS assay to identify small molecule antagonists of the farnesoid-X-receptor (FXR) signaling pathway (AID 743217; active means well fitted inhibition curve with a large enough effect in the signal ratio in the repeat runs, not every such curve was filed as active; inconclusive means weak or mixed curves, or effect the other way; inactive means no such curve, though single readings can be large or run the other way; the % refers to the signal ratio); conditions: HEK293T FXR-UAS-bla, beta-lactamase ratio, CDCA-stimulated, 16 h; activity change, negative = inhibition: at 62.6 µM (top of the series) unless noted
# Summary of the method: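 In this cell-based antagonist screen, inhibition of CDCA-driven (50 uM final) UAS-beta-lactamase expression in HEK 293T cells was measured by FRET fluorescence following 16 h compound exposure at 37 °C.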
# [15] = molecular target: Bile acid receptor (Homo sapiens) (UniProt Q96RI1); experiment: qHTS assay to identify small molecule agonists of the farnesoid-X-receptor (FXR) signaling pathway (AID 743220; active means well fitted activation curve with a large enough effect in the signal ratio in the repeat runs, not every such curve was filed as active; inconclusive means weak or mixed curves, or effect the other way; the % refers to the signal ratio); conditions: HEK293T FXR-UAS-bla, beta-lactamase FRET ratio, 16 h; activation: at 62.6 µM (top of the series) unless noted
# Summary of the method: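 Beta-lactamase reporter under UAS control in GeneBLAzer FXR HEK 293T cells (5000/well) measured with LiveBLAzer FRET substrate after 2 h at room temperature. Compound exposure lasted 16 h at 37C.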
# [16] = qHTS assay to identify small molecule agonists of the peroxisome proliferator-activated receptor delta (PPARd) signaling pathway - cell viability counter screen (AID 743211); conditions: PPARd-bla HEK293H viability, CellTiter-Glo luminescence, 17 h; activity change, negative = cytotoxicity: at 62.6 µM (top of the series); further: nearly all actives have a fitted effect of over 55% in size
# Summary of the method: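 PPARd-bla HEK293H cells (3000/well) were pre-incubated 5 h at 37 C, then exposed to compound for 17 h at 37 C. After 2 h with LiveBLAzer substrate, CellTiter-Glo was added to the same wells; luminescence read after 30 min at room temperature.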
# [17] = molecular target: Vitamin D3 receptor (Homo sapiens) (UniProt P11473); experiment: qHTS assay to identify small molecule agonists of the vitamin D receptor (VDR) signaling pathway (AID 743222; calls by dose curve); conditions: HEK293T VDR-UAS-bla, beta-lactamase FRET ratio, 16 h; activation: at 63.5 µM (top of the series) unless noted
# Summary of the method: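 VDR-bla cells were seeded, left 4 h, treated with compounds in DMSO for 16 h, incubated 2 h at RT with B/G FRET substrate, and read for fluorescence.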
# [18] = molecular target: Vitamin D3 receptor (Homo sapiens) (UniProt P11473); experiment: qHTS assay to identify small molecule antagonists of the vitamin D receptor (VDR) signaling pathway (AID 743223; active means well fitted inhibition curve with a large enough effect in the signal ratio in the repeat runs, not every such curve was filed as active; inconclusive means weak or mixed curves, or effect the other way; inactive means no such curve, though single readings can be large or run the other way; the % refers to the signal ratio); conditions: VDR-UAS-bla HEK293T, beta-lactamase FRET ratio, 16 h; activity change, negative = inhibition: at 61 µM (top of the series) unless noted
# Summary of the method: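 VDR-bla cells were treated with compound plus 3 nM final 1alpha,25-dihydroxyvitamin D3 for 16 h at 37C. Beta-lactamase reporter read by B/G FRET substrate fluorescence after 2 h at room temperature. qHTS format.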
# Potency means the concentration at half of the fitted maximal effect; tags describe the fitted curve by direction and shape or compound fluorescence and quenching.
# Chain of UniProt P11473 (P11473 whole entry, looked up): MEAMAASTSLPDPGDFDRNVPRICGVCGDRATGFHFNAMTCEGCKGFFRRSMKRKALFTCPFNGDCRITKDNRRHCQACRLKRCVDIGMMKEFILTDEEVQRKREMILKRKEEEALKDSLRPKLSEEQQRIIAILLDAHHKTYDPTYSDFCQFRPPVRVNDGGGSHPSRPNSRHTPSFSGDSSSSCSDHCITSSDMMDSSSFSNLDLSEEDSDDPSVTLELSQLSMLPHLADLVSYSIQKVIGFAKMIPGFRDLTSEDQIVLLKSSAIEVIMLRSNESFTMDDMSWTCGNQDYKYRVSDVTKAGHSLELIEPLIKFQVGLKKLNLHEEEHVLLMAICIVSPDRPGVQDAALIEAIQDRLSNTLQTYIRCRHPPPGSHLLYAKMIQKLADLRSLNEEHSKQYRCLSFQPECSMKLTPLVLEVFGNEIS
# Chain of UniProt P37231 (P37231 whole entry, looked up): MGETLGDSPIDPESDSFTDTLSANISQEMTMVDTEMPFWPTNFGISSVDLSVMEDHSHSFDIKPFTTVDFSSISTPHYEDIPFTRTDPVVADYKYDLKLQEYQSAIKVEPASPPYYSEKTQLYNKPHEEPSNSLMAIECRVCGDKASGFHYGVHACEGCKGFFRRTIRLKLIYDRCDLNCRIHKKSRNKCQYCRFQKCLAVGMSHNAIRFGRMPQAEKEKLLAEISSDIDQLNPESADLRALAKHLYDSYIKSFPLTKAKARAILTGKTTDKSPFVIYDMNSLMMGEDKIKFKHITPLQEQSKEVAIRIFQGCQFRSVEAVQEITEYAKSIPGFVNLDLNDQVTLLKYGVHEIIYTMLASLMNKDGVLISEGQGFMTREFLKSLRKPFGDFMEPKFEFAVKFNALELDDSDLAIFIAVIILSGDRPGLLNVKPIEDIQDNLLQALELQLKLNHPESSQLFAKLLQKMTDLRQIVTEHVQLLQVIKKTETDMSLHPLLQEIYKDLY
# Chain of UniProt Q03181 (Q03181 whole entry, looked up): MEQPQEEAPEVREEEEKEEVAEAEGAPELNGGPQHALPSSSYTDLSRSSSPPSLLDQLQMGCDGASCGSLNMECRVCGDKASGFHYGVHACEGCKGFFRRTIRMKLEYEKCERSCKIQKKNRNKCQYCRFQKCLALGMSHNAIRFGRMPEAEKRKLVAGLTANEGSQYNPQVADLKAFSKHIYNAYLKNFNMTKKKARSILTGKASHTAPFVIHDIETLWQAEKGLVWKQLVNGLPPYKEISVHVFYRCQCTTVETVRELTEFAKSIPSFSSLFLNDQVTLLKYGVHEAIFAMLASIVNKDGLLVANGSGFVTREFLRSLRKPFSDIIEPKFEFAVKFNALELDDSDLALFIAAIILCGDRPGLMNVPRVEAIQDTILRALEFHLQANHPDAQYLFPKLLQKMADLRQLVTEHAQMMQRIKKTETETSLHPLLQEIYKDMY
# Chain of UniProt Q96RI1 (Q96RI1 whole entry, looked up): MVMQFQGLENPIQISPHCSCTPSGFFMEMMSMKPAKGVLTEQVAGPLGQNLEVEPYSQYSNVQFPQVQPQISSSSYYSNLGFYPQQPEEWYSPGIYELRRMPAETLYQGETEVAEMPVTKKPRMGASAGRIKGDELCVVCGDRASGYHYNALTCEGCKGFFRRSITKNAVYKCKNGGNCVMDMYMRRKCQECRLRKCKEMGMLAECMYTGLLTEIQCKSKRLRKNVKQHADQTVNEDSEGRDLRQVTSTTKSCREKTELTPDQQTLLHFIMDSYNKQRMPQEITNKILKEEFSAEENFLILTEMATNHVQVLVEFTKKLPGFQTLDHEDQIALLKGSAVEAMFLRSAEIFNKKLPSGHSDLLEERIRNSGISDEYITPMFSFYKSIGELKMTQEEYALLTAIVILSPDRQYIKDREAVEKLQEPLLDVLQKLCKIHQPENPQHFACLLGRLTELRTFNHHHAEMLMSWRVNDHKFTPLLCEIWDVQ
compound,measurement,setting,value
CCCCC(=O)O[C@]1(C(=O)CO)[C@H](C)C[C@H]2[C@@H]3CCC4=CC(=O)C=C[C@]4(C)[C@@]3(F)[C@@H](O)C[C@@]21C,Potency,[1],"inconclusive: 16.9 µM [rising, partial curve, poor fit]"
same,"ratio activity, negative = inhibition",[2],inconclusive: 21.8%
same,Potency,[3],inactive
same,activation,[4],inconclusive: -6.61%
same,activation,[5],inconclusive: 1.41%
same,Potency,[6],"inconclusive: 94.4 nM [cytotoxic, single point]"
same,"ratio activity, negative = inhibition",[7],inconclusive: 1.49%
CC(=N\O)/C(C)=N/O,Potency,[8],"inconclusive: 61.1 µM [rising, partial curve, poor fit]"
same,activation,[4],inconclusive: 1.5%
same,Potency,[9],"inconclusive: 1.55 µM [rising, partial curve, poor fit]"
same,Potency,[10],"inconclusive: 54.9 µM [falling, partial curve, poor fit]"
CCCCCCCCCCCCCCCC(=O)OC[C@H](O)[C@H]1OC(=O)C(O)=C1O,Potency,[1],"inconclusive: 54.9 µM [falling, partial curve, poor fit]"
same,activation,[1],inconclusive: -9.44%
same,Potency,[2],inactive
same,Potency,[3],"inconclusive: 54.9 µM [cytotoxic, single point]"
same,activation,[4],inconclusive: -2.01%
same,Potency,[11],active: 49 µM
same,Potency,[12],inconclusive: 47.1 µM
same,Potency,[5],active: 49 µM
same,Potency,[9],active: 38.9 µM
O=P(O)(O)OCC(O)CO (stereo not drawn),Potency,[1],inactive
same,Potency,[2],inactive
same,Potency,[4],inactive
same,Potency,[13],inactive
same,Potency,[5],inactive
same,Potency,[14],inactive
same,Potency,[15],inactive
CC(=O)O[C@@H]1CC2CCC1(C)C2(C)C (stereo partly drawn),Potency,[1],inactive
same,Potency,[2],inactive
CCCCCCCCCCCCCC[N+](C)(C)Cc1ccccc1,activation,[1],inconclusive: -10.8% [at 78.9 µM]
same,Potency,[2],"inconclusive: 62.6 µM [cytotoxic] and inconclusive: 33.5 µM [inhibitor, single point]"
same,Potency,[3],active: 22.2 µM and active: 29.8 µM
same,Potency,[13],"inconclusive: 33.5 µM [cytotoxic, single point]"
same,Potency,[16],active: 22.2 µM and active: 21.1 µM
same,Potency,[5],inconclusive: 49.7 µM
same,activation,[5],inconclusive: 16.6%
same,Potency,[6],active: 22.2 µM and active: 10.6 µM
same,Potency,[7],"inconclusive: 62.6 µM [cytotoxic, single point]"
same,"ratio activity, negative = inhibition",[7],inconclusive: -29.4%
same,Potency,[14],inconclusive: 55.8 µM [inhibitor]
same,Potency,[9],"inconclusive: 17.7 µM [cytotoxic, partial curve, poor fit] and active: 23.7 µM"
same,Potency,[15],inconclusive: 62.6 µM [single point] and inactive
same,Potency,[10],"inconclusive: 26.6 µM [falling, partial curve]"
same,Potency,[17],inconclusive: 55.8 µM [cytotoxic]
same,Potency,[18],active: 44.3 µM
Oc1cccc(Nc2ccccc2)c1,activation,[1],inconclusive: -5.27% [at 78.9 µM]
same,Potency,[2],"inconclusive: 11.4 µM [inhibitor, full curve, poor fit]"
same,Potency,[3],inactive
same,activation,[4],inconclusive: 8.04% [at 94.8 µM]
CNCc1cc(F)ccc1Oc1ccc(Cl)c(Cl)c1,Potency,[8],"inconclusive: 77 µM [falling, single point]"
same,Potency,[4],"inconclusive: 12.2 µM [rising, full curve, poor fit]"
same,Potency,[16],"inconclusive: 49 µM [cytotoxic, partial curve]"
same,Potency,[6],"inconclusive: 21900 nM [cytotoxic, partial curve]"
same,Potency,[9],active: 49 µM
same,Potency,[18],"inconclusive: 24.5 µM [cytotoxic, full curve]"
C#C[C@]1(O)CC[C@H]2[C@@H]3CCc4cc(OC)ccc4[C@H]3CC[C@@]21C,Potency,[1],inactive
same,"ratio activity, negative = inhibition",[2],inconclusive: 1.52% and inconclusive: 7.28%
same,Potency,[4],"inconclusive: 24.3 µM [rising, partial curve] and inconclusive: 23.7 µM [rising, partial curve]"
same,Potency,[16],"inconclusive: 21.9 µM [cytotoxic, full curve, poor fit] and inconclusive: 33.5 µM [cytotoxic, single point]"
same,activation,[5],inconclusive: -4.72%
same,Potency,[7],"inconclusive: 0.944 µM [rising, partial curve]"
same,Potency,[9],"inactive and inconclusive: 18.8 µM [cytotoxic, single point]"
same,"activity change, negative = inhibition",[18],inconclusive: 15.3%
